This is an account of results in ChEMBL document CHEMBL4888484, “Replenishing the malaria drug discovery pipeline: Screening and hit evaluation of the MMV Hit Generation Library 1 (HGL1) against asexual blood stage Plasmodium falciparum ,using a nano luciferase reporter read-out” (2022).

The term % Inhibition denotes the change of the read-out against control, counted positive when it falls.

The whole screen tested about 150,000 compounds, of which about 540 (0.36%) showed an effect of 50% or more. This is one part of the list.

The subject of this experiment is Plasmodium falciparum. Kind of experiment: Primary screen in NF54 nanoGlo assay, in single point, at 2uM, 72h; a lower Z score goes with more inhibition. The class given is functional, Erythrocyte. Conditions: timepoint 72 hour.
For `O=C1CC[C@](CCC(=O)N(Cc2ccccc2)CC2CC2)(Cc2ccco2)N1`, the “% Inhibition” value was 1% and the Z score was -0.17.
Turning to `CC(C)[C@@H]1CN(C)CCN1CCOC(C)(C)C`, the “% Inhibition” value is -23% and the Z score was 2.47.
As for `Cc1ccnc(NCc2snnc2C(C)C)n1`, the “% Inhibition” value is -16% and the Z score is 1.69.
On the same counts, the results for `CCn1ncc(C(=O)N2CCc3ncc(C)cc32)c1Br` are -1% and 0.1.
For `CCc1nnc2c(S(=O)(=O)Nc3ccc(C(C)C)cc3)cccn12` the same measures were 32% and -3.67.
For `CCN(CC)S(=O)(=O)c1ccc(=O)n(CC(=O)NC(c2ccccc2)c2ccccc2)c1` the same measures were -3% and 0.35.
For the compound `COCCOc1cc(=O)n2c(c1C(=O)N1CCN(c3ccccc3)CC1)CCOCC2`, the “% Inhibition” value was 1% and the Z score was -0.05.
On the same counts, the results for `COc1ccc(-n2cnc(=O)c(C#N)n2)cc1` are -9% and 1.62.
For `O=C(c1ccc[nH]1)N1CCC[C@H](Cn2cc(C3CCCC3)nn2)C1` the same measures were -17% and 1.86.
`CCN(C)C(=O)NC[C@H]1COC2(CCCCCC2)O1`: the “% Inhibition” value is given as -12% and the Z score worked out at 1.87.
For the compound `c1ccc2c(c1)OC[C@H](Cn1ccnc1-c1c[nH]cn1)O2`, the “% Inhibition” value was -9% and the Z score turned out to be 1.16.
`O=C(c1ccc(F)c(F)c1F)N1CCC(NCC2CC2)CC1`: the “% Inhibition” value is -2% and the Z score is 0.29.
For `O=C(CC1=CCCCC1)N1CC[C@@]2(CCCN(CC3CCCCC3)C2=O)C1` the same measures were 7% and -0.93.
Turning to `Cc1nnnn1-c1ccc(C(=O)N2CCC(=O)N3CCC[C@@H]32)c(F)c1`, the “% Inhibition” value came out at 7% and the Z score is listed as -0.9.
On the same counts, the results for `O=C(O)c1ccc2c(c1)[C@@H](CNCc1cncnc1)CCC2` are -2% and 0.47.
For `COc1cn(CC(=O)NCc2ccccc2Cl)c(CO)cc1=O` the same measures were -1% and 0.17.
`O=C(NC1C(=O)c2ccccc2NC1c1ccco1)c1ccccc1` (stereo unspecified): the “% Inhibition” value is -26% and the Z score is 3.03.
As for `COc1c(F)c(F)cc(C(=O)N[C@H]2CCC23CCOCC3)c1F`, the “% Inhibition” value turned out to be 6% and the Z score is given as -0.77.
On the same counts, the results for `O=S(=O)(CCn1nnc2ccccc21)NCC1CCCCC1` are 13% and -1.69.
On the same counts, the results for `CCCc1csc(NC(=O)c2cc[nH]n2)n1` are -4% and 0.41.
On the same counts, the results for `CC(C)N1CCN(C(=O)c2cc3c(s2)CCN(C(=O)c2ccc(Cl)cc2)C3)CC1` are -15% and 2.33.
With `Cc1ccccc1C(=O)N1[C@H](C(=O)NCc2ccco2)COC12CCN(C(=O)c1ccccc1Cl)CC2`, the “% Inhibition” value is -2% and the Z score is listed as 0.3.
As for `COc1cc(-c2cc(-c3cccnc3)c3c(ccc4ccccc43)n2)cc(Cl)c1O`, the “% Inhibition” value came out at 18% and the Z score is recorded as -2.48.
In the case of `CCc1nc([C@H](C)N2C(=O)N(C)C3(CCCCC3)C2=O)cs1`, the “% Inhibition” value was determined as 17% and the Z score is on record as -2.2.
For `Cc1ccc(CCC(=O)NCC(=O)N2CCC[C@@]2(CO)Cc2ccccc2)cc1` the same measures were -7% and 1.05.
On the same counts, the results for `Cc1ccc(CCCC(=O)NCC(=O)O)cc1` are -3% and 0.41.
For `O=C(c1cn(-c2ccc(F)cc2F)c(=O)c2ccccc12)N1CCN(Cc2ccc3c(c2)OCO3)CC1` the same measures were -5% and 0.75.
Regarding `Cc1cc(C(=O)N(C)C(C)C2CN(Cc3ccccc3)CCO2)co1` (stereo unspecified), the “% Inhibition” value amounted to 1% and the Z score was -0.08.
Regarding `Cc1nn(-c2ccccc2)c(N2CCC(C(=O)N[C@@H](C)c3ccccc3)CC2)c1-n1c(C)ccc1C`, the “% Inhibition” value is -5% and the Z score is 0.65.
Consider `C[C@H](O)c1cnc(CNc2cccc3c2CCN(CC(F)(F)F)C3)s1`, for which the “% Inhibition” value was -11% and the Z score worked out at 1.68.
For `CC(C)OC1CC(NC[C@H](CCO)c2ccccc2)C1` (stereo partly specified) the same measures were 27% and -3.49.
On to `Cc1cc(Cl)ccc1OCC(=O)N1C2CCC1CC(=O)NC2` (stereo unspecified), for which the “% Inhibition” value was 18% and the Z score is recorded as -2.27.
On the same counts, the results for `CCS(=O)(=O)N1CCC[C@H](C(=O)Nc2nc(C(C)(C)C)co2)C1` are -8% and 1.66.
For `CCn1cc(C)c(C(=O)O)c1CC(=O)Nc1ccc(Cl)cn1` the same measures were -13% and 2.35.
For `COCCN1CCN(c2ccnc(C#N)c2)CC1=O` the same measures were -10% and 1.65.
Turning to `CCOC(=O)C(NC(=O)C1CCS(=O)(=O)C1)C1CCCCCC1` (stereo unspecified), the “% Inhibition” value is -8% and the Z score amounted to 1.07.
Turning to `Cc1cc(S(=O)(=O)N2CC[C@@H]3[C@@H](COCCN3Cc3ccccc3)C2)ccc1F`, the “% Inhibition” value is 35% and the Z score is listed as -3.95.
For `CCCCN1C(=O)CC[C@@H]2CN(S(=O)(=O)N3CCOCC3)CC[C@@H]21` the same measures were -12% and 1.2.
On to `COc1cc2c(cc1OC)[C@H](c1cccc(Cl)c1)N(C(=O)CCC1CCCC1)CC2`, for which the “% Inhibition” value is recorded as -4% and the Z score was determined as 0.59.
As for `CN(C)C(=O)CN(C)S(=O)(=O)[C@H]1CCCN(C(=O)c2cccc(Cl)c2)C1`, the “% Inhibition” value is reported as -6% and the Z score came out at 0.65.
As to `COCc1cccc(C(=O)NCC2(N3CCOCC3)CCCCCC2)n1`, the “% Inhibition” value is listed as -9% and the Z score stood at 0.92.
For `CN(C(=O)COc1ccc2ccccc2c1)[C@@H](c1cccc(F)c1)c1ccccn1` the same measures were -12% and 1.57.
On the same counts, the results for `Cc1n[nH]c(C)c1[C@H](C)N(C)C(=O)c1ccc(NC(=O)C2CCC2)cc1` are -7% and 0.91.
For `Cc1ncsc1C(=O)NCC(=O)N(C)C` the same measures were -1% and 0.19.
In the case of `CCc1nnc(Cn2ccc(-c3cccc(-c4ccc(OC)nn4)c3)n2)o1`, the “% Inhibition” value is given as -4% and the Z score stood at 0.43.
For `CCc1nsc(NCCCCc2ccnc(N)c2)n1` the same measures were 3% and -0.53.
On the same counts, the results for `CC(C)(C)CC(=O)N1C[C@@H]2Oc3ncccc3S(=O)(=O)N[C@@H]2C1` are -8% and 1.25.
For `CCc1nccn1CC(=O)N1CC[C@H](c2cccc(Cl)c2)C1` the same measures were -23% and 2.16.
As to `FC(F)c1nnc(N2CCC(N3CCN(c4cccc(Cl)c4)CC3)CC2)o1`, the “% Inhibition” value was 1% and the Z score is given as -0.12.
On the same counts, the results for `CCCNc1cc(N2CCC(CCC(=O)N3CCN(c4cccc(C)c4)CC3)CC2)ncn1` are -9% and 1.46.
On the same counts, the results for `Cc1c[nH]c(C(=O)N2CCC[C@@]3(CCC(=O)N(CCc4c[nH]cn4)C3)C2)n1` are -12% and 1.84.
On the same counts, the results for `O=C(NC1CNCCC1c1ccc(F)cc1)c1ccc2nccnc2n1` (stereo unspecified) are -7% and 0.96.
For the compound `O=C(NC1(c2cccs2)CCCC1)c1c(F)cccc1Cl`, the “% Inhibition” value was -4% and the Z score came out at 0.75.
